From patent US10485854B2, “Method of reducing biofilms” (Lysando AG, priority 2010, dated 2019)

Key:
[1] = tested on: different exponential growing Gram-negative species; assay: Anti-Gram-negative spectrum, overall statement on all species of Example 7; type: cell-based
[2] = tested on: biofilm of the Pseudomonas aeruginosa strains 2572 and 2573; assay: Biofilm reduction, crystal violet assay; details: 25 μg/well, 12 h; compared to the endolysin OBP
[3] = tested on: biofilm of the Acinetobacter baumannii strain DSMZ30007; assay: Biofilm reduction, crystal violet assay; details: 25 μg/well, 12 h; compared to the endolysin OBP

B1: PKOBPgpLYS: fusion protein SEQ ID NO: 61: endolysin OBPgpLYS (SEQ ID NO: 7) with peptide SEQ ID NO: 11 (protein)
chain: MGSKRKKRKKRKKNSEKNASIIMSIQRTLASLSLYGGRIDGLFGEKCRGAIILMLNKVYPNFSTNKLPSNTYEAESVFTFLQTALAGVGLYTITIDGKWGGTSQGAIDALVKSYRQITEAERAGSTLPLGLATVMSKHMSIEQLRAMLPTDRQGYAEVYIDPLNETMDIFEINTPLRIAHFMAQILHETACFKYTEELASGKAYEGRADLGNTRPGDGPLFKGRGLLQITGRLNYVKCQVYLREKLKDPTFDITSSVTCAQQLSESPLLAALASGYFWRFIKPKLNETADKDDIYWVSVYVNGYAKQANPYYPNRDKEPNHMKERVQMLAVTKKALGIV
modifications: PKOBPgpLYS
effect with EDTA on the activity [1]: clear synergistic effect | effect compared to unmodified OBPgpLYS ([1]; all bacterial species tested, both in the absence as the presence of 0.5 mM EDTA): added effect | reduction of biofilm (crystal violet, absorption 590 nm) [2]: massive reduction | reduction of biofilm (crystal violet, absorption 590 nm) [3]: massive reduction
